Measured values: ChEMBL document CHEMBL1201862, “PubChem BioAssay data set” (2004)
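In this assay, cells in 96-well plates receive the compound at five concentrations for 48 hours. Endpoints are linearly interpolated between the surrounding concentrations. Here, GI50 denotes the concentration required for 50% inhibition of growth.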 The source made the active and inactive calls. No stated cut-off is given here; in the data, active = GI50 up to about 1.1 µM and inactive = higher.

These compounds were tested on NCI-H322M (assay: NCI tumour cell line growth inhibition, 48 h).

SMILES | GI50
NC(=O)NC(=O)c1cccc(NC(=O)CCl)c1 | inactive: 1.34 µM
CCCCCCCCCCCCC/C=C(/COCC[N+](C)(C)C)OC(C)=O.CCCCCCCCCCCCCC/C(=C/OCC[N+](C)(C)C)OC(C)=O | inactive: 2.96 µM
C=CCNC1=C2C[C@@H](C)C[C@@H](OC)C(OC(=O)CCCN(C)C)[C@H](C)/C=C(\C)[C@@H](OC(N)=O)[C@H](OC)/C=C\C=C(/C)C(=O)NC(=CC1=O)C2=O (stereo not given in full) | inactive: 6.81 µM
COc1ccc([C@H]2CC3C(=O)N(c4ccc(OC)cc4)C(=O)C3c3[nH]c4ccccc4c32)cc1 (stereo not given in full) | inactive: 91.2 µM
CCn1c(O)c(C(=O)Nc2cccs2)c(=O)n(CC)c1=S | inactive: 25.5 µM
CC(C)(C)C(=O)C(C(c1ccccc1)N1CCOCC1)N1CCOCC1 (stereo not given) | inactive: > 100 µM
O=c1cc(-c2cc(O)c(O)c(-c3c(O)cc4oc(-c5ccc(O)c(O)c5)cc(=O)c4c3O)c2)oc2cc(O)cc(O)c12 | inactive: > 25 µM
[O-][n+]1c2ccccc2[n+]([O-])c2cc(Br)ccc21 | inactive: 6.15 µM
Brc1cccc(Nc2ncnc3sc4c(c23)CCC2(C4)OCCO2)c1 | inactive: 8.87 µM
CC(C)(C)OC(=O)CN1CCNCCN(CC(=O)OC(C)(C)C)CCNCC1 | inactive: 62.5 µM
CC(=O)/C=C1\Nc2ccc([N+](=O)[O-])cc2N\C1=C/C(C)=O | inactive: 39.8 µM
COC(=O)/C1=C/C=C\C[C@@]2(C)CC(c3ccoc3)OC(=O)[C@@H]2CC[C@H]1C (stereo not given in full) | inactive: > 25 µM
COC(=O)C(=O)CC(=O)CCn1[nH]c(=O)c(Cl)c(Cl)c1=O | inactive: > 100 µM
O=C1c2cc(Cc3ccccc3)c(=O)c(Cc3ccccc3)cc2C(=O)c2cc(Cc3ccccc3)c(=O)c(Cc3ccccc3)cc21 | inactive: > 100 µM
CCOC(=O)c1c(SC)nc(-c2ccc(Cl)cc2)sc1=N.[O-][Cl+3]([O-])([O-])O | inactive: 27.6 µM
O=C1C2CC(Cl)C(SSC3CC4C(=O)N(SC(Cl)(Cl)C(Cl)Cl)C(=O)C4CC3Cl)CC2C(=O)N1SC(Cl)(Cl)C(Cl)Cl (stereo not given) | active: 0.91 µM
N#Cc1c(-c2ccc([N+](=O)[O-])cc2)cc(-c2ccc(Nc3ccnc4cc(C(F)(F)F)ccc34)cc2)[nH]c1=O | inactive: > 100 µM
CCOc1ccc(-c2nc(-c3oc4ccccc4c(=O)c3OC(C)=O)cs2)cc1 | inactive: 3.81 µM
CC(=O)/C=C/C=C(\C)CC/C=C(\C)CC(C)C | inactive: 85.1 µM
COc1c(OC(C)=O)c(OC(C)=O)cc2c1-c1ccc(SC)c(=O)cc1C(NC(C)=O)CC2 (stereo not given) | active: 0.619 µM
COc1c(O)cc2ccnc3c2c1N(C)C=C3 | inactive: > 100 µM
CCOC(CBr)OC1C(=O)OCC1(C)C (stereo not given) | inactive: > 100 µM
C#CC(O)/C=C/C(O)CCCC(O)CC#CC(O)C#CCCCCC(O)/C=C/CCCC(O)/C=C/CCCCCCCCCCCCCC(O)C(O)C#CC(=O)O (stereo not given) | inactive: > 25 µM

SMILES | GI50
CC(C)C(NC(=O)C(Cc1ccccc1)NC(=O)[C@H]1CCC[C@H]1NC(=O)C(N)Cc1ccc(O)cc1)C(N)=O (stereo not given in full) | inactive: > 100 µM
CCOC(=O)/N=C(\N)SCc1ccccc1 | inactive: > 100 µM
OC(c1ccccc1Br)(c1ccccc1Br)C(F)(F)F | inactive: 44 µM
COC(=O)C1(C(C)C)CCc2c(OC)ccc(OC)c2C1=O (stereo not given) | inactive: > 100 µM
O=C1C2c3[nH]c4ccccc4c3C3CCCC3C2C(=O)N1c1ccccc1 (stereo not given) | inactive: > 100 µM
Nc1nc(N)c(-c2ccc(Cl)cc2)c(CCC(=O)Nc2cccc(C(F)(F)F)c2)n1 | inactive: > 100 µM
O=C(O)c1ccccc1CC1Cc2ccc3c(c2C1=O)CCC3 (stereo not given) | inactive: > 100 µM
CC1=Nc2ccccc2S(=O)(=O)N1 | inactive: > 100 µM
CC(=O)OCC1OC(n2c(C)c(/N=N/c3ccccc3)c(C)c(C#N)c2=S)C(OC(C)=O)C(OC(C)=O)C1OC(C)=O (stereo not given) | inactive: 69 µM
CN1C(=O)[C@@H]2[C@@H]3c4ccccc4N[C@@H]3c3[nH]c4ccccc4c3[C@@H]2C1=O | inactive: 31 µM
Nc1nnc2c(-c3ccccc3)n[nH]c2n1 | inactive: 49.7 µM
CCOC(=O)c1c(-c2[nH]c(C(=O)OCc3ccccc3)c(C)c2C(=O)OCC)[nH]c(C(=O)OCc2ccccc2)c1C | inactive: > 100 µM
COc1cc(-c2c3c([nH]c(=O)c2C#N)-c2cc([N+](=O)[O-])ccc2CCC3)cc(OC)c1OC | inactive: 29.8 µM
O=C(O)C1=NN=C(C(=O)O)NN1 | inactive: > 100 µM
O=[N+]([O-])c1cccc2c(/N=N/c3ccc4ccccc4c3O)c(O)cc(S(=O)(=O)O)c12 | inactive: 30.6 µM
C/C(=N\Nc1nc2ccccc2o1)c1ncccn1 | active: 0.0273 µM
COC(=O)C1=Cc2cc(OC)c(OC)c(OC)c2[C@H](c2cc(OC)c(OC)c(OC)c2)C1C(=O)OC (stereo not given in full) | inactive: > 100 µM
CCCCCCCCCCOCCOCCOCCOCCCCC(O)CCCCCCCC1=C[C@H](C)OC1=O (stereo not given in full) | inactive: 11.4 µM
O=CN1CCN(C(=O)c2ccco2)C1=S | inactive: 20.7 µM
Cc1ccnc2nc(-c3ccc4ccccc4c3)cc(O)c12 | inactive: 1.39 µM
CN(C)Cc1cc(C(=O)/C=C/c2ccc(Cl)cc2Cl)cc(CN(C)C)c1O | inactive: 3.97 µM
COc1cc2c(cc1OC)-c1cc3cc(OC)c(OC)cc3n1CC2 | inactive: > 100 µM
